{"source": "PubChem BioAssay AID485294", "about": "(National Center for Advancing Translational Sciences (NCATS), 2010)", "note": "Hit rate of the full screen: of about 370,000 compounds, about 150 (0.041%) were called active. The inconclusive results got no clear call from the source; some entries with a clear call stand among them for comparison. Calls come from the whole dose curve; as a rule, active = well fitted inhibition curve with a large enough effect; inconclusive = small, poorly fitted or top-dose-only effect; inactive = flat fitted curve, though single readings scatter. No potency is given beside an inconclusive call; the fits are too rough. Potency is the fitted concentration of half-maximal effect; tags give direction and shape of the fitted curve."}
{"molecular_target": "Beta-lactamase (Escherichia coli (strain K12)) (UniProt P00811)", "sequence (P00811 whole entry, looked up)": "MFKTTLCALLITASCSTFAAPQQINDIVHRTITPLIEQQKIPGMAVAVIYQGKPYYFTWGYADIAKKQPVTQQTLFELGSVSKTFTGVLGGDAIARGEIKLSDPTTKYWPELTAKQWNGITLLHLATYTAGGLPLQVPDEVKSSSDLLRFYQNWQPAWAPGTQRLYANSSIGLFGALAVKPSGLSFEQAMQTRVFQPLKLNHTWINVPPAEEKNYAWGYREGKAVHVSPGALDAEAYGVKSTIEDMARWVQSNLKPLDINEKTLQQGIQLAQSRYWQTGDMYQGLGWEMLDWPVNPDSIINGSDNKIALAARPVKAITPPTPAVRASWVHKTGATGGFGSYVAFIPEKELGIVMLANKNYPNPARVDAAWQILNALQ", "assay": "qHTS Inhibitors of AmpC Beta-Lactamase (assay with detergent); note: nearly all actives have a fitted effect of over 25% in size;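 for activity change, negative = inhibition: 0% = no-compound wells and -100% = no-enzyme wells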", "settings": "AmpC hydrolysis of nitrocefin, absorbance 480 nm, 0.01% Triton; activity change, negative = inhibition: at 114 µM (top of the series)", "procedure,_shortened": "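AmpC (5.3 nM in the dispensed reagent) in 20 mM phosphate pH 7.0 with 0.01% (detergent screen) or 0.0001% Triton X-100 was preincubated with compounds for 15 min at room temperature. Nitrocefin was then added from an 800 uM solution, and hydrolysis was followed at 480 nm.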"}
{"compound": "COc1ccc(CNC(=O)NCc2ccc(OC)c(OC)c2)cc1OC", "Potency": "inconclusive [inhibitor, full curve]"}
{"compound": "CSc1ccc(C2Nc3cccc4cccc(c34)N2)cc1", "Potency": "inconclusive [inhibitor, full curve]"}
{"compound": "CC(C)(C)OC(=O)NNC(=S)NC1CCCCC1", "Potency": "inconclusive [inhibitor, full curve, poor fit]"}
{"compound": "COc1ccc(C(=O)CN2C(=O)NC3(CCc4ccccc43)C2=O)c(OC)c1", "note": "(stereo not drawn)", "Potency": "inconclusive [inhibitor, full curve]"}
{"compound": "COc1ccccc1N1CCN(C(=O)c2ccc(S(=O)(=O)N3CCCCCC3)cc2)CC1", "Potency": "inconclusive [inhibitor, single point]"}
{"compound": "COC(=O)c1cc(-c2ccc(C)cc2)c2c(=O)n(C)c(=O)n(C)c2n1", "activity change, negative = inhibition": "inactive: 18%"}
{"compound": "NS(=O)(=O)c1ccc(NC(=O)c2ccccc2C(=O)N2CCCCC2)cc1", "Potency": "inconclusive [inhibitor, single point]"}
{"compound": "CC(C)CCC(O)(CCC(C)C)C(=O)NNc1ccccc1", "Potency": "inconclusive [inhibitor, partial curve]"}
{"compound": "CC(C)=N/N=C(/c1ccc([N+](=O)[O-])cc1)C12CN3CN(CN(C3)C1)C2", "Potency": "inconclusive [inhibitor, single point]"}
{"compound": "Nc1cc(=O)[nH]c(SCCOc2ccccc2)n1", "Potency": "inconclusive [inhibitor, single point]"}
{"compound": "COc1ccc2sc(C)[n+](C)c2c1", "Potency": "inconclusive [inhibitor, full curve, poor fit]"}
{"compound": "Cc1ccc(CNc2cnccn2)cc1", "Potency": "inconclusive [inhibitor, full curve, poor fit]"}
{"compound": "Cc1nnc(NC(=O)c2nc(S(=O)(=O)Cc3ccccc3C)ncc2Cl)s1", "Potency": "inconclusive [inhibitor, partial curve]"}
{"compound": "CCn1c(CCNC(=O)c2cccs2)nnc1SCC(=O)Nc1nc(-c2ccccc2)cs1", "Potency": "inconclusive [inhibitor, partial curve, poor fit]"}
{"compound": "COc1ccc(NC(=O)Cn2c(SCc3cccc(Cl)c3)nc3ccncc32)c(OC)c1OC", "activity change, negative = inhibition": "inactive: -1.23%"}
{"compound": "COc1ccc(N2CCN(C(=O)C(CCSC)N=C3NS(=O)(=O)c4ccccc43)CC2)cc1", "note": "(stereo not drawn)", "Potency": "inconclusive [inhibitor, single point]"}
{"compound": "C/C(=N/NC(=O)c1cc(-c2ccc(Br)s2)[nH]n1)c1ccco1", "activity change, negative = inhibition": "inactive: 0.557%"}
{"compound": "CC1=C(C(=O)Nc2ccccc2)C(c2ccccc2)n2nc(-c3ccco3)nc2N1", "note": "(stereo not drawn)", "activity change, negative = inhibition": "inactive: 21.9%"}
